# Laboratory results as given in PubChem BioAssay AID493208 (National Center for Advancing Translational Sciences (NCATS), 2011).
# In all, about 44,000 compounds went through this assay and about 340 (0.77%) were called active. Inconclusive results (about 5%) are left out. Calls come from the whole dose curve; as a rule, active = well fitted inhibition curve with a large enough effect; inconclusive = small, poorly fitted or top-dose-only effect; inactive = flat fitted curve, though single readings scatter. The list shows a part of the results.
# Assay: Acumen qHTS Assay for Inhibitors of the mTORC1 Signaling Pathway in MEF (Tsc2-/-, p53-/-) Cells: Sytravon; note: nearly all actives have a fitted effect of over 50% in size;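 for activity change, negative = inhibition: plate controls were DMSO for no effect and rapamycin for full effect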
# Details: phospho-rpS6 immunofluorescence/PI, 24 h; series mostly up to 38.3 µM; activity change, negative = inhibition: at the top concentration
# Procedure, shortened: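 Immunofluorescence of rpS6 phosphorylation in Tsc2-/-, p53-/- MEFs after 24 h compound exposure, normalized to propidium iodide signal. Activity is expressed as % positive cells, thresholded with 7.5 nM rapamycin.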
# Potency is the fitted concentration of half-maximal effect.
SMILES,"activity change, negative = inhibition",Potency
CCOC(=O)c1cc(S(=O)(=O)N2CCN(c3cccc(C)c3C)CC2)[nH]n1,inactive: -1.64%,–
CNC(=O)c1c(NC(=O)c2nc(SCc3ccc(C)cc3)ncc2Cl)sc2c1CCCC2,inactive: 1.19%,–
COc1ccc(-c2cc(C(C)=O)c(C)n2CCC(=O)NCc2ccc(C)cc2)cc1,inactive: -2.35%,–
COc1cccc(CNC(=O)C2CCN(C(=O)c3cnn(-c4ccccc4)c3-n3cccc3)CC2)c1,inactive: 5.21%,–
Cc1ccc(NC(=O)Nc2cn(CC(C)C)c(=O)c3ccccc23)cc1N(C)C,inactive: 5.69%,–
CCN(c1ccccc1C)S(=O)(=O)c1nnc(NC(=O)c2ccco2)s1,inactive: 7.87%,–
COc1ccc(Nc2nnc(-c3ccc(C)c(S(=O)(=O)NCCO)c3)c3ccccc23)cc1C(N)=O,inactive: 9.2%,–
Cc1ccc(-n2ncc(C(=O)NC3CCCCC3)c2C2CCN(C(=O)OC(C)(C)C)CC2)cc1,inactive: -9.09%,–
COc1ccccc1OCC(=O)N1CCC(c2nc3ccccc3o2)CC1,inactive: -12.5%,–
CCCS(=O)(=O)c1ncc(Cl)c(C(=O)Nc2c(C(=O)Nc3ccccc3)oc3ccccc23)n1,–,active: 2.07 µM
COc1ccc(CNc2nc3c(-c4cccc(F)c4)nnn3c3ccccc23)cc1,inactive: -12.1%,–
COc1ccc(N(C)C(=O)c2cc3c(s2)-c2c(C)cccc2OC3)c(OC)c1,inactive: -6.15%,–
COc1ccc(-c2c(C)nn3c(C(F)(F)F)cc(-c4ccccc4)nc23)cc1OC,inactive: 3.56%,–
CN(CC(=O)NCc1ccc(F)cc1)S(=O)(=O)c1ccc2[nH]c3c(c2c1)CCCC3,inactive: -2.36%,–
Cc1cccn2c(=O)cc(CSc3nnc(NC(=O)COc4ccccc4)s3)nc12,inactive: 9.59%,–
COC(=O)c1cc2sccc2n1CC(=O)Nc1ccc(OC)c(OC)c1,inactive: -2.09%,–
Cc1c(Cl)cccc1NC(c1ccc(F)cc1)c1nnc(-c2ccccc2)o1 (configuration not stated),inactive: -3.5%,–
COc1ccc(C2=C(N3CCN(c4cc(C)ccc4C)CC3)c3ccccc3C2=O)cc1,inactive: -0.4%,–
CCc1ccc(-n2c(=O)c3sc4ccccc4c3n(CC(=O)NCc3ccccc3)c2=O)cc1,inactive: -3.76%,–
O=C(c1ccc2c(c1)N(Cc1cccc(F)c1)C(=O)c1ccccc1S2)N1CCC2(CC1)OCCO2,inactive: 0.877%,–
O=C(Cn1cccc1C(=O)c1ccccc1)NCc1ccccc1Cl,inactive: -9.09%,–
O=C(Nc1cccnc1)c1cc(-c2ccc(Cl)cc2)on1,inactive: -27.4%,–
Cc1ccc(-n2c(=O)c3c4c(sc3n(CC(=O)Nc3cccc(Cl)c3)c2=O)CCCCC4)cc1C,inactive: 3.8%,–
Cc1cccc(C)c1OCC(=O)NC(Cc1c[nH]c2ccccc12)C(=O)O (configuration not stated),inactive: -2.29%,–

SMILES,"activity change, negative = inhibition",Potency
Cc1ccc(S(=O)(=O)NCc2nc3nc(C)cc(C)n3n2)cc1,inactive: -7.64%,–
Cc1ccc(C)c(CN2CCCN(CC(=O)Nc3ccc(C)c(C)c3)S2(=O)=O)c1,inactive: -8.79%,–
COc1cc(Cl)c(C)cc1NC(=O)CCc1nc2cccnc2n1Cc1cccs1,inactive: -12.6%,–
Cn1cc(C(=O)NCc2ccccc2Cl)c(=O)c2cc(S(=O)(=O)N3CCCCCC3)ccc21,inactive: -3.9%,–
CCOC(=O)c1c(S(=O)(=O)N2CCC(C(=O)N3CCN(c4ccccc4F)CC3)CC2)c(C)n(C)c1C,inactive: -4.86%,–
CC(C)N(Cc1ccccc1)C(=O)Cn1ncc2c3ccccc3n(Cc3ccccc3)c2c1=O,inactive: -12%,–
CCOC(=O)c1ccc(NC(=O)CCCn2c(=O)c3cccn3c3cccnc32)cc1,inactive: -2.45%,–
Cc1cccc(Cn2c(SCc3ccc(C(=O)NC4CCCC4)cc3)nc3cccnc32)c1,inactive: -2.52%,–
Cc1nn(-c2ccc(Cl)cc2)c2nc(-c3cccnc3)cc(C(F)(F)F)c12,inactive: 0.826%,–
COc1ccc(NC(=O)C2CCN(S(=O)(=O)c3c(C)noc3/C=C/c3cccs3)CC2)cc1,inactive: 7.22%,–
COc1ccc(OC)c(CNC(=O)c2ccc(NC(=O)c3nsc4ccccc34)cc2)c1,inactive: 1.41%,–
Cc1ccccc1OCCCCn1c(CCNC(=O)C(C)(C)C)nc2ccccc21,inactive: -6.1%,–
COc1ccc(OC)c(S(=O)(=O)NCC(c2ccco2)S(=O)(=O)c2ccccc2)c1 (configuration not stated),inactive: -3.22%,–
CCn1cc(S(=O)(=O)c2cccc(Cl)c2)c(=O)c2cc(F)c(N3CCN(C)CC3)cc21,inactive: -12.7%,–
CN(Cc1ccccc1)C(=O)CCS(=O)(=O)c1ccc2c(c1)oc(=O)n2C,inactive: -2.84%,–
COC(=O)c1ccccc1NC(=O)c1ccc(-c2nc(CSc3ccc(C)cc3)c(C)o2)cc1,inactive: 0.0211%,–
O=S(=O)(Nc1ccc(C(F)(F)F)cc1)c1ccc2c(c1)OCCO2,inactive: 4.15%,–
COc1ccccc1N1CCN(Cc2nnc(-c3ccccc3C)o2)CC1,inactive: 2.41%,–
COCCCn1c(=O)c2sccc2n2c(CCCC(=O)Nc3cccc(C(F)(F)F)c3)nnc12,inactive: 3.49%,–
CCOC(=O)c1cccc(NC(=O)c2ccc3nc(CCc4ccccc4)oc3c2)c1,inactive: 0.666%,–
O=C(c1ccc2c(c1)N(Cc1ccc(Cl)cc1)C(=O)c1ccccc1S2=O)N1CCC(Cc2ccccc2)CC1 (configuration not stated),inactive: -9.38%,–
O=C(NCCCc1nc2ccccc2n1Cc1cccc(Cl)c1)C1CCCCC1,inactive: -6.79%,–
Cc1ccccc1OCC(=O)Nc1ccc2nc(SCC(N)=O)sc2c1,inactive: -2.74%,–
